Measured values as given in the RNAGym collection of RNA variant scans (doi:10.1093/nar/gkz1192).
The source gives no read counts; variants with many changes may rest on few reads.

B1: CPEB3 Ribozyme (parent)
chain: UAACAGGGGGCCACAGCAGAAGCGUUCACGUCGCAGCCCCUGUCAGAUUCUGGUGAAUCUGCGAAUUCUGCUGUAUAUCUC

Variants of: B1
Test: self-cleavage, relative activity (ratio to wild type); higher = more cleavage; in vitro, sequencing
Outline: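 Relative activity was defined as the cleaved/total read fraction for a variant divided by the same fraction for the unmutated ribozyme. CPEB3 self-cleaving ribozyme libraries were made by rounds of error-prone PCR, barcoded, and transcribed in vitro with T7 RNA polymerase for 5 hours at 37°C, and cleavage ran through transcription plus a 15 min DNase I step before EDTA. Illumina sequencing of template-switched reverse transcripts gave the reads, and DNA sequencing mapped the barcodes. Averages come from three batches, using variants with at least 5 reads.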

Variant	self-cleavage
G6A A15G U26A U41G A45C A64G	0.06
G7A G46A U78A	0.36
G7A A20G A35U U41C U60C	0.08
G7A A35U A45U C62U A75U	0.04
G7A U25C U43C U60C	0.07
G6A U26A U48C U58C A65G U67A	0.06
G6A A56G U78C	0.27
G6C G8U A35U G53A U54C U58C U66A	0.05
G7C G10A U41C U51C A65U U67C U80C	0.05
A5U U51G U58C	0.57
G6A A28U U67A	0.07
G7C G8A U26C A45G U58C U69C	0.05
G7A U26C U43A	0.4
G7U A13G A20G U41G U51A	0.08
G6C U54C U60C	0.32
G7A U41A A75G	0.18
G7U C32U A56U A57G	0.09
G6U U26C A28U U31A U48C C71A	0.09
G6A U41A G52A U72A U74C A75C	0.26
G6A A20G C39A A45G U67C	0.06
G7U C23G U67C	0.14
G7C A13G U72A	0.31
G6A A28G G53A A64U U67C U76C	0.04
G7C C39U A47U U80A	0.07

Variant	self-cleavage
G7U C32A U43G	0.07
G7C A35G U72A	0.07
G7A A18G G24A U48C U49C U69C	0.06
G6A A13U A18G A57U A64U	0.31
G7A U67C A77G U78A	0.16
G7U G9A C12G G19U U43A U60C U72A	0.05
G7A A13G A64G	0.16
G6A G33A U49C	0.25
G6U A18G U51C C71A	0.04
G7U A47G U60C A65G U74C A75U	0.11
A5U U67C U74G	0.46
G6C G8U A35U U58C U66A U74C	0.25
G7A G8A C40U G42C U67C	0.13
G7C A15G U25C A47C	0.3
G6U C32A A77G	0.14
G7U A13U U31C A45G U51C A75G	0.06
G6A A21G C39A U54C	0.31
G7C A13C A15G U25A U49C U60C U67C	0
G7U A35U U41C A56G U60G	0.07
G7A U26A A45G G52A A56U U80A	0.04
G7U A18G U25C U43C G53U	0
G7U A13G G22A U31C U51C A64U	0.05
G6A G24A U25C C44U A47G U54C U72A	0.15
G6A G9C U58A	0.27

Variant	self-cleavage
G7A A18U A20U A45G U49A A64U C68G	0.03
G7A G42U U49C U69C	0.07
G6C A18G U48C A65G	0.2
G7A A20G C79A	0.1
G7A A20G U60C U69G	0.14
G7A A64U U72A U80C	0.06
G6U A18G U43A U78C	0.41
G7A A13G U43A U51C G63A U80C	0.06
G6A A15G U51A A75U U80C	0.28
G6C U26C A57U U78C	0.21
G7C U26C C39A U43C A45U U54C	0.04
G6A A13C A35G	0.38
G6A A18G G24A A35G A57G	0.06
G7C C34A A35C U51G A56C C62U	0.09
G6U A47G U49A	0.09
G6A A18G A57G	0.22
G6U U43C A57G	0.08
G7U A28U U49C A57G	0.04
G7C A21G U25C U60C	0.21
G7U A45G U49C	0.37
G6A G30A G42A	0.06
G6A A20G U31C U58G	0.04
G7A G24A U25C U49A A75U	0.07
G7A C12G A65G A75G	0.09

Variant	self-cleavage
G6U A15U U51A G52U U58A	0.09
G6C U26G U72A	0.07
G6A G7A C32A U49C A56U	0.24
G6U A20G A45U A64U U66C	0.08
G6A A13G A45C U72C U78C	0.16
G7A G30U A47C U54A A56U U72C	0.08
G6U U25C A28G A35U G63U	0.06
G6A U26A A57G U69G	0.3
G7U A13G C14U U49C U58C U78A	0.12
G7A G70A A75G U76G	0.13
G6U A15U U25C U43C U58C	0.24
G6A C12U U41C U72C	0.76
G6U A21G U58C U60C C62U U78G	0.05
A5U U51G A56U A57G U78A	0.38
G7A C27U U31A A64U U69A	0.05
G6U A15U C29U A45G U58A	0.13
G7A G10A A56U U60C U69A	0.17
G7A A21G U25C U26A A56G A64G U69A	0.03
G7A U25A U31C G52A	0.05
G7U A21U U25C U69C	0.06
G7U C40A U78C	0.16
G6A A35U U76C	0.11
G7U A13U U48A A57G U76C U80C	0.06
G6A A18U A56G A57U C59U A75G	0.06

Variant	self-cleavage
G6U A15G U54C A64G U66C	0.04
G7C A13G U43C U54A	0.18
G7A A20G G22A A45G U72A	0.05
G6A U49C A57G	0.16
G6U U26C U49C U67A	0.06
G7C U41A U49C U69C	0.34
G6A A15G A20G G55A A56U	0.25
G7C A35G C39A A56U C59G U78C	0.04
G7U A15G A20G U51C U69C	0.07
G7A A13U A28G U78C	0.06
G6A A20U U51C	0.41
G7A A35G A45U U54C U60G	0.3
G6U U25C A45G U66A A75U	0.06
G7A A13U U25C U41C	0.17
G6A U25C A28G G52A U60A U72C U78C	0.17
G6A C27G G61A	0.16
G7U A35G U43C U51A A57U	0.13
G6U A13G U48A A65U	0.15
G7U A13U A35G G46U G70A	0.06
G6A A28G C34U G46A U54C A65G U78A	0.09
G6A A15G A21G C34A U51A U67C U76A	0.04
G6A U66C U80A	0.21
G6U G24U U25G	0.33
G6U A28G U41C A45G A57G U67C U80C	0.11

Variant	self-cleavage
G6U U31C C37U U54C U69G	0.06
G7C U26A U69C	0.25
G6A C23U A65U	0.07
G7U A20U U41C A56G G61U A77G	0.06
G7C A18U U25C	0.08
G6A U31C U43G U49C U51A U58G U72C	0.04
G6A A18C U41C U66C	0.09
G7C U26A A28G C37U U78A	0.05
G6A G22U A35U U48C U72A	0.05
G7A A20G A28G A35G A64G U78C	0.06
G7U C14A C38U U67C	0.11
G7U A15G G22C G30U U41A G73C	0.19
G7U A18U G33U A45G G53C G73A A75U	0.02
G7U A35G G46A U60G U80A	0.18
G6A A13G A18U	0.31
G7U C27U U69C	0.19
G6A A28U C34U U48C A56G	0.05
G7U C23G A45G C62U A64U	0.03
G6A A20U C38U G52A	0.05
G6A A21G U25C A28G	0.48
G6A C50G A75U	0.14
G6U C11U U74C	0.1
G7A A13G A20G U41C C62U	0.06
G6A G36U A45G A56G U60C	0.09

Variant	self-cleavage
G6U A13U U43C	0.16
G7A A15G A18G A20U U26A A65G U78C	0.04
G6A G16C A35C U49C	0.19
G6U A20G U26A A45C A56G	0.24
G6A C12U U72C	0.72
G6U G16A U72A	0.34
G7A A13U A15U U49C A57C	0.07
G6C G8U U54C A57G U74A	0.08
G6A A35C A47G U54A U58C U66C U72A	0.36
G6A C11G A18C A20G U58C A64U	0.06
G7U C11A U25C U41A U58C U69A	0.05
G7U C40A U41C	0.22
G7A U60A A65U	0.05
G6C A35U G52C C59A	0.16
G6A U31A U43A A57G U58C A75G	0.06
G6C A13G U25A U41C A56U U80C	0.04
A5U U54G U60C	0.5
G6A A13G A35G C38U U67G U80A	0.06
G7U G9A A35G C71U	0.05
G6A G24A U54C U66A	0.11
G6U A15U U80C	0.33
G6U C12U A18G U25C U54C U69A	0.05
G6A A35U U48C U54A U60A A65G U80A	0.09
